# Test results reported in PubChem BioAssay AID686978 (National Center for Advancing Translational Sciences (NCATS), 2013).
# Screen size: about 420,000 compounds; about 64,000 (15%) were called active. The inconclusive results got no clear call from the source; some entries with a clear call stand among them for comparison. The call rests on the fitted dose curve; in most records, active means well fitted inhibition curve with a large enough effect; inconclusive means small, poorly fitted or top-dose-only effect; inactive means flat fitted curve, though single readings scatter. No potency is given beside an inconclusive call; the fits are too rough.
# Assay: qHTS for Inhibitors of human tyrosyl-DNA phosphodiesterase 1 (TDP1): qHTS in cells in absence of CPT; further: nearly all actives have a fitted effect of over 55% in size
# Conditions: DT40 Tdp1-/- hTDP1 cells, no CPT, ATP luminescence, 48 h; activity change, negative = growth inhibition: at 46.2 µM (top of the series) unless noted
# Outline: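 Cells were dispensed at 400 per well, compounds added by pin tool, plates incubated ≥48 hr at 37 °C, then CellTiter-Glo added for 30 min at room temperature before luminescence reading. Line: DT40 Tdp1-/- complemented with hTDP1; camptothecin omitted.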
# On the % scale 0 is the no-effect control and ±100 the full control effect; potency means the concentration at half of the fitted maximal effect; tags describe the fitted curve by direction and shape.
Structure (SMILES),Potency,"activity change, negative = growth inhibition"
Cc1ccccc1NC(=O)Nc1ccccc1C(=O)NCc1ccccc1,"inconclusive [inhibitor, single point]",
Cc1ccsc1C(=O)N1CCC(CO)(Cc2ccccc2)CC1,inactive,
COc1ccc(S(=O)(=O)N2CCC(C(=O)NCCC3=CCCCC3)CC2)cc1OC,"inconclusive [inhibitor, partial curve]",
CCOC(=O)c1c(N)sc2c1CCC1C(=O)N(C3CCCCC3)C(=O)C21 (stereo not drawn),active: 25.9 µM,
NC1=NC[C@@H](CC2CCCCC2)N1CCc1cc(C(F)(F)F)cc(C(F)(F)F)c1,active: 3.66 µM,
CS(=O)(=O)N1CCC2(CCN(c3cccc(-c4ccccc4)c3)CC2)CC1,active: 20.6 µM,
O=C1/C(=C/C=C/c2ccccc2)Oc2c1ccc(O)c2CN1CCN(CCO)CC1,"inconclusive [inhibitor, single point]",
Fc1ccc(-c2nn(-c3ccccc3Cl)c3c2cnc2ccccc23)cc1,"inconclusive [inhibitor, single point]",
CS(=O)(=O)N1c2ccccc2[C@]2(Br)C[C@H]3C(=O)N[C@@H](Cc4ccccc4)C(=O)N3[C@H]12,"inconclusive [inhibitor, single point]",
CC(C)(CNC(=O)Cc1ccc(Cl)cc1Cl)N1CCOCC1,inactive,
CC1(C)CC[C@]2(C(=O)O)CC[C@@]3(C)C(=CCC4[C@@]5(C)CCC(O)[C@@](C)(CO)C5CC[C@@]43C)C2C1 (stereo partly drawn),"inconclusive [inhibitor, single point]",
O=C1NC(=O)/C(=C/c2ccccc2OCc2ccccc2)S1,inactive,
Cc1ccc(N2CC(O)CSC2=Nc2ccccc2)cc1 (stereo not drawn),"inconclusive [inhibitor, single point]",
Cc1ccc([C@@H]2C[C@H]3[C@@H](CN2S(=O)(=O)c2ccc(Cl)cc2)C(=O)C[C@@H](c2ccccc2F)N3S(=O)(=O)c2ccc(C)cc2)cc1,"inconclusive [inhibitor, partial curve]",
Cn1c(=O)c([N+](=O)[O-])c(-n2cnc3ccccc32)c2ccccc21,active: 20.6 µM,
COc1ccc2c(c1)C(=O)[C@@H](O)[C@H](c1ccc(OC)c(Br)c1)O2,"inconclusive [inhibitor, single point]",
CC1(C)C(N(O)C(=O)Nc2ccccc2)N(c2cccc(Cl)c2)C(=O)N1O (stereo not drawn),"inconclusive [inhibitor, full curve, poor fit]",
COc1ccccc1NC(=O)COC(=O)CN1C(=O)C(=O)c2ccccc21,"inconclusive [inhibitor, single point]",
CCc1c(O)nc(SCc2ccccc2)n(C(C)CC)c1=O (stereo not drawn),"inconclusive [inhibitor, partial curve]",
COc1ccc(CN2CCC2(C)C(=O)Nc2cccc(NS(C)(=O)=O)c2)c2ccccc12 (stereo not drawn),"inconclusive [inhibitor, single point]",
CCCC1NC(=O)c2cccnc2-n2c1nc1ccc(Cl)cc1c2=O (stereo not drawn),inactive,
COc1cc(NC(=O)C2=CC(c3cccs3)=NS(=O)(=O)N2C)cc(OC)c1OC,"inconclusive [inhibitor, single point]",
CCOC(=O)[C@H](N)/C=C(\C)CP(=O)(O)O,inactive,
O=C(NN=Cc1c[nH]c2ccccc12)NN=Cc1c[nH]c2ccccc12,"inconclusive [inhibitor, partial curve]",
COc1ccc(CNC(=O)c2nc(SCc3ccccc3F)ncc2Cl)cc1,"inconclusive [inhibitor, single point]",

Structure (SMILES),Potency,"activity change, negative = growth inhibition"
CCC1CCCCN1C(=O)CSc1nnc(N)s1 (stereo not drawn),inactive,
CC1(C(=O)NS(=O)(=O)c2ccc(Cl)cc2)CCN1C(=O)C/C=C/c1ccccc1 (stereo not drawn),inactive,
C/C(=N\NC(=O)c1ccc(O)cc1)c1cc2ccccc2o1,"inconclusive [inhibitor, single point]",
CC1CCN(C(=O)c2[nH]cnc2C(=O)NCc2ccccc2)CC1,inactive,
COc1ccccc1Cn1c(CNS(=O)(=O)c2ccc(C(C)C)cc2)nc2cccnc21,active: 23.1 µM,
COc1ccc(-c2cn3ccc4ccccc4c3n2)cc1,"inconclusive [inhibitor, partial curve]",
Clc1ccc(CSc2nnnn2-c2ccc3c(c2)OCO3)c(Cl)c1,"inconclusive [inhibitor, partial curve]",
Cn1c(-c2ccsc2)c(-c2cccs2)c2cc(-c3ccc4cc[nH]c4c3)ccc21,"inconclusive [inhibitor, single point]",
COc1cc(C2c3cc4c(cc3OC(N3CCCCC3)C2C)OCO4)cc(OC)c1O (stereo not drawn),"inconclusive [inhibitor, single point]",
CC1(C)Cc2c(sc(NC(=O)COc3ccc(Cl)cc3)c2C#N)C(C)(C)N1,"inconclusive [inhibitor, single point]",
CCOC(=O)c1cc2[nH]c3ccccc3c2[n+](-c2ccc([N+](=O)[O-])cc2)c1N,active: 8.2 µM,
Cc1ccc(S(=O)(=O)Nc2ccc3c(c2)ncn3C(C)(C)C)cc1,"inconclusive [inhibitor, single point]",
Cn1cccc1C(NC(=O)c1ccccc1)C(Cl)(Cl)Cl (stereo not drawn),,inconclusive: -34.8% [inhibitor]
CC(=O)Nc1ccc(-n2cc(-c3ccccc3)[nH]c2=S)cc1,"inconclusive [inhibitor, single point]",
CC1(C)CC2(CCO1)OC(=O)CC2C(=O)NCc1ccccc1 (stereo not drawn),inactive,
CCN(Cc1ccccc1)Cc1ccc(OCc2ccccc2)c(OC)c1,"inconclusive [inhibitor, full curve]",
COc1ccccc1CNC(=O)N/C=C/c1ccc(Cl)cc1,inactive,
CC(NC(=O)c1ccc2c(c1)CCN2S(=O)(=O)c1ccccc1)c1ccccc1 (stereo not drawn),"inconclusive [inhibitor, single point]",
COC(CNC(=O)c1ccc2c(c1)ncn2C1CCCCCC1)OC,inactive,
CCN(CC(=O)Nc1ccc(OC)c(Cl)c1)CC(=O)NC(C)C,inactive,
O=C(c1nn(Cc2ccccc2)c(=O)c2ccccc12)N1CCN(c2ccccn2)CC1,"inconclusive [inhibitor, partial curve]",
O=C(NCc1cccnc1)C(=O)NCC(c1ccco1)N1CCN(c2ccc(F)cc2)CC1 (stereo not drawn),active: 16.4 µM,
O=C(N/C(=C\c1ccccc1)C(=O)N1CCOCC1)c1ccccc1Br,inactive,
CS(=O)(=O)c1sc(C(=O)NC(=O)Nc2cccc(C(F)(F)F)c2)c2c1C=CCC2,"inconclusive [inhibitor, single point]",
Cn1nc(C(=O)N2CCCC2)c2ccccc2c1=O,inactive,

Structure (SMILES),Potency,"activity change, negative = growth inhibition"
CCOC(=O)N1CCN(C(=O)c2cn(CC)c3ccc(S(=O)(=O)N(C)C4CCCCC4)cc3c2=O)CC1,inactive,
CCn1c2ccccc2c2cc(NC(=O)COc3ccccc3OC)ccc21,active: 3.66 µM,
CCOC(=O)C(CC)Sc1ncnc2c1nnn2-c1ccc(F)cc1 (stereo not drawn),"inconclusive [inhibitor, single point]",
C[C@@H]1CC[C@]2(O[C@H](CCO)C[C@H](O)[C@H]2O)O1,inactive,
CCN(CCO)C(=O)c1ccc2nc(Cc3cccc(Cl)c3)oc2c1,inactive,
Cc1cccc(-n2nc(C(=O)c3ccco3)cc(-c3nc4ccccc4[nH]3)c2=N)c1,active: 8.2 µM,
COc1ccc(CCN2C(=O)c3ccccc3C2c2nnnn2C(C)C)cc1OC (stereo not drawn),inactive,
C=CCC(=O)N1CCC(n2nccc2NC(=O)CCOc2ccccc2)CC1,inactive,
Cc1ccc(NC(=O)Cc2cccs2)cc1Cl,"inconclusive [inhibitor, single point]",
Cc1c(C#N)c2ccccc2n1CC(=O)N1CCCc2ccccc21,"inconclusive [inhibitor, partial curve]",
CCN(CC)S(=O)(=O)c1ccc(C(=O)NNc2nc(-c3ccccc3)c3cc(Br)ccc3n2)cc1,"inconclusive [inhibitor, single point]",
CC(=O)n1nc(-c2ccc(Cl)cc2)nc1NCc1ccco1,"inconclusive [inhibitor, partial curve]",
CCOC(=O)C1CCC(CN(Cc2ccccc2)S(=O)(=O)c2ccc(Br)cc2)CC1 (stereo not drawn),"inconclusive [inhibitor, single point]",
O=C(CSc1ncnc2c1cnn2-c1cccc(Cl)c1)NCC1CCCO1 (stereo not drawn),active: 14.6 µM,
O=C(COc1ccc([N+](=O)[O-])cc1)Nc1ccc(C(=O)NCc2cccnc2)cc1,inactive,
CCOC(=O)CCc1c(C)n[nH]c1C,inactive,
O=S(=O)(NC1Cc2ccccc2C1)c1ccccc1,inactive,
CCCC(=O)Nc1nc(C)c(-c2csc(Nc3ccccc3OC)n2)s1,"inconclusive [inhibitor, partial curve]",
COc1ccc(/C=C/c2nc(C#N)c(NCc3ccc(F)cc3)o2)cc1OC,"inconclusive [inhibitor, single point]",
Clc1ccc2nc(N3CCCCC3)sc2c1,"inconclusive [inhibitor, partial curve, poor fit]",
Cc1ccccc1-c1nc2cc(N)ccc2o1,inactive,
CCc1noc(C)c1C(=O)N1CCN(c2ccc([N+](=O)[O-])cc2)CC1,"inconclusive [inhibitor, single point]",
Cc1cccc(/C=C(\C#N)c2nc3ccccc3c(=O)[nH]2)c1,"inconclusive [inhibitor, single point]",
